PubChem BioAssay AID504832 (National Center for Advancing Translational Sciences (NCATS), 2011)
The whole screen tested about 310,000 compounds, of which about 18,000 (5.8%) were called active. This list was built around the results that the source calls inconclusive (neither active nor inactive); the mix of calls is not that of the screen. The call rests on the fitted dose curve; in most records, active means well fitted inhibition curve with a large enough effect; inconclusive means small, poorly fitted or top-dose-only effect, or another doubt; inactive means no such curve, though single readings can be large or run the other way. Potencies of inconclusive entries are left out as doubtful fits.
On the % scale 0 is the no-effect control and ±100 the full control effect; potency means the concentration at half of the fitted maximal effect; tags describe the fitted curve by direction and shape.

Assay: Primary qHTS for delayed death inhibitors of the malarial parasite plastid, 48 hour incubation
Conditions: P. falciparum luciferase growth in erythrocytes; series mostly up to 28.7 µM; activity change, negative = inhibition: at the top concentration
Method in brief: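 Cell-based growth assay: transgenic P. falciparum expressing firefly luciferase, cultured in red cells within RPMI 1640 containing 0.5% w/v Albumax, 24 mM bicarbonate and gentamycin. A drop in luciferase activity indicates inhibition.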
With `CCOP(=O)(OCC)OCC` the “activity change, negative = inhibition” value was inactive: 7.62%.
In the case of `CCc1cccc(CC)c1NC(=S)Nc1cccc(Cl)c1Cl`, the Potency is reported as inconclusive [inhibitor, partial curve].
In the case of `CCSc1cc(C)nc2c(-c3ccccc3)cnn12`, the “activity change, negative = inhibition” value is reported as inactive: 406%.
With `Cc1ccc(S(=O)(=O)Nc2cc(C(C)C)c(O)cc2C)cc1` the Potency was inconclusive [inhibitor, single point].
With `O=C(CNC(=O)N1CC(=O)Nc2ccccc21)NCc1cccc(Cl)c1` the “activity change, negative = inhibition” value was inactive: 4.46%.
In the case of `NC(N)=N/N=C/c1ccc(OCc2ccccc2)c(OCc2ccccc2)c1`, the Potency is reported as active: 0.522 µM.
With `CCc1ccc(-c2cc(C)no2)cc1S(=O)(=O)N1CCOc2ccc(C)cc21` the Potency was active: 2.94 µM.
In the case of `COc1ccc(S(=O)(=O)Nc2cc3c4c(c2)CC(=O)N4CCC3)cc1`, the Potency is reported as inconclusive [inhibitor, single point].
With `CCOC(=O)C(=O)N(Nc1ccc(C)cc1)c1ccc(C)cc1` the Potency was inconclusive [inhibitor, single point].
In the case of `O=C(c1cc(Cl)ccc1OCc1ccccc1)N1CCOCC1`, the “activity change, negative = inhibition” value is reported as inactive: 30.9%.
With `CCn1nc(NC(=O)c2ccco2)c2cc3cc(C)ccc3nc21` the “activity change, negative = inhibition” value was inactive: -10.6%.
With `CCOc1ccccc1N(CC(=O)NC1CCCCC1)S(=O)(=O)c1ccc(C)cc1` the Potency was active: 11.7 µM.
With `Cc1ccc(NC(=O)CNC(=O)c2ccc(Br)o2)nc1` the “activity change, negative = inhibition” value was inactive: 13.3%.
With `CCOCCCNCc1cccc(OCc2ccc(F)cc2)c1` the Potency was inconclusive [inhibitor, single point].
For `CCN(CC)C(=O)CC(c1ccc2c(c1)OCO2)c1c(O)cc(OC)cc1OC` (centres undefined), the Potency was inconclusive [inhibitor, partial curve].
In the case of `CCN(CC)C(c1ccc(C)cc1)c1nnnn1C1CCCCC1` (centres undefined), the Potency is reported as inconclusive [inhibitor, partial curve].
For `S=C1Nc2ccccc2Sc2ccc(Cl)cc21`, the Potency was inconclusive [inhibitor, single point].
With `Cn1c(SCC(=O)c2ccccc2)nnc1-c1cccnc1` the Potency was inconclusive [inhibitor, single point].
In the case of `COc1ccc(C(C)C)cc1S(=O)(=O)Nc1ccccn1`, the “activity change, negative = inhibition” value is reported as inactive: 12.3%.
For `CC(NC(=O)C1CCC(C(C)(C)C)CC1)C(c1ccccc1)N1CCOCC1` (centres undefined), the Potency was inconclusive [inhibitor, single point].
With `FC(F)(F)c1cccc(Sc2nc(-c3ccccc3)nnc2C(F)(F)F)c1` the Potency was active: 11.7 µM.
With `CCOC(=O)c1[nH]c(COC(=O)CCOc2ccccc2OC)c(C(=O)OCC)c1C` the “activity change, negative = inhibition” value was inactive: 66.1%.
For `O=C(NC1CCC(c2ccccc2)CC1)c1cccnc1` (centres undefined), the Potency was inconclusive [inhibitor, single point].
In the case of `CS(=O)(=O)Nc1ccc(C2=NN(S(C)(=O)=O)C(c3ccc4nccnc4c3)C2)cc1` (centres undefined), the “activity change, negative = inhibition” value is reported as inactive: 2.43%.
In the case of `Cc1onc(C(=O)Nc2c(C)n(C)n(-c3ccccc3)c2=O)c1[N+](=O)[O-]`, the “activity change, negative = inhibition” value is reported as inactive: -0.427%.
For `COc1cccc(N2CCN(C3CC(=O)N(c4ccc(F)c(Cl)c4)C3=O)CC2)c1` (centres undefined), the “activity change, negative = inhibition” value was inactive: 18.7%.
For `O=S1(=O)C=CC(N2CCOCC2)C1` (centres undefined), the “activity change, negative = inhibition” value was inactive: -1.62%.
With `CCOc1ccccc1NC(=O)C(CC)Sc1nc2ccncc2[nH]1` (centres undefined) the “activity change, negative = inhibition” value was inactive: 18.4%.
In the case of `O=C(CNc1cccc(S(=O)(=O)N2CCCC2)c1)Nc1ccc(F)cc1F`, the Potency is reported as active: 8.28 µM.
With `O=c1c2ccccc2nc(N/N=C/c2ccc(O)cc2)n1O` the Potency was inconclusive [inhibitor, single point].
With `COc1cccc(NC(=O)CN(C)C(=O)c2cccc(S(=O)(=O)N3CCN(c4ccccc4)CC3)c2)c1` the Potency was inconclusive [inhibitor, single point].
For `COC1=C(N2CCOCC2)C(=O)c2ccccc2C1=O`, the Potency was inconclusive [inhibitor, single point].
With `CCC1CCCCN1S(=O)(=O)c1ccc(S(=O)(=O)N(Cc2cccs2)C2CC2)cc1` (centres undefined) the Potency was active: 8.28 µM.
In the case of `Cc1ccc(N(C(=O)c2csnn2)C(C(=O)NC2CCCCC2)c2ccncc2)cc1` (centres undefined), the “activity change, negative = inhibition” value is reported as inactive: -15.2%.
In the case of `O=C(c1ccco1)N1CCN(C(=O)C2Cc3ccccc3CN2S(=O)(=O)c2ccc(F)cc2)CC1` (centres undefined), the Potency is reported as inconclusive [inhibitor, single point].
With `CC(C)C(=O)Nc1ccc(C(=O)c2ccccc2)cc1` the “activity change, negative = inhibition” value was inactive: 201%.
With `O=C(C1CCN(S(=O)(=O)c2cccc3nsnc23)CC1)N1CCc2ccccc2C1` the Potency was inconclusive [inhibitor, single point].
For `COc1ccc(OC)c(NC(=O)NC2CCCc3ccccc32)c1` (centres undefined), the Potency was inconclusive [inhibitor, single point].
For `Cc1nc(CCNC(=O)COc2ccccc2)cs1`, the “activity change, negative = inhibition” value was inactive: 0.7%.
In the case of `Cc1ccc(NC(=O)c2oc3ccccc3c2NC(=O)c2ccc3c(c2)OCO3)cc1`, the Potency is reported as inconclusive [inhibitor, single point].
With `CCOCCCN(C(=O)c1snc(C(N)=O)c1N)C(C(=O)NC1CCCC1)c1ccc(OC)cc1` (centres undefined) the Potency was active: 8.28 µM.
In the case of `Cc1onc(-c2ccccc2)c1C(=O)NC1CCC(C)CC1` (centres undefined), the Potency is reported as inconclusive [inhibitor, single point].
With `Cc1ccc(-n2c(=O)c3ccc(C(=O)NCc4ccco4)cc3n(Cc3ccccc3C#N)c2=O)cc1` the Potency was inconclusive [inhibitor, partial curve, poor fit].
In the case of `O=C(O/N=C1\CCCc2ccccc21)c1ccc(F)cc1`, the “activity change, negative = inhibition” value is reported as inactive: 72.7%.
In the case of `COc1ccc(-c2nc(=S)c3ccc4ccccc4c3[nH]2)cc1`, the Potency is reported as inconclusive [inhibitor, single point].
In the case of `COc1cc2c(cc1OC)CN(c1nc(CN3CCCCC3)nc3sc4c(c13)CCCC4)CC2`, the Potency is reported as active: 3.29 µM.
For `CC(=O)Nc1ccc(N(CC(O)Cn2c3ccccc3c3ccccc32)S(=O)(=O)c2ccc(C)cc2)cc1` (centres undefined), the Potency was active: 9.28 µM.
In the case of `CN(C)C(=O)c1ccc(NC(=O)COC(=O)c2cc(S(=O)(=O)N(C)C)ccc2N2CCCC2)cc1`, the Potency is reported as inconclusive [inhibitor, partial curve, poor fit].
In the case of `CC(C)CCNC(=O)CCc1nnc2n(CCCOC(C)C)c(=O)c3ccccc3n12`, the Potency is reported as inconclusive [inhibitor, full curve].
